Self-cleavage data for 167 variants are collected here from the RNAGym collection of RNA variant scans (doi:10.1093/nar/gkz1192).

The source gives no read counts; variants with many changes may rest on few reads.

The chains are these.
B1: CPEB3 Ribozyme (parent)
chain: UAACAGGGGGCCACAGCAGAAGCGUUCACGUCGCAGCCCCUGUCAGAUUCUGGUGAAUCUGCGAAUUCUGCUGUAUAUCUC

The variants in this data set derive from B1. Description: self-cleavage, relative activity (ratio to wild type); higher = more cleavage; in vitro, sequencing. The gist of the method:
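Relative activity compares each variant's cleaved/total read fraction with that of the unmutated ribozyme. To get these fractions, barcoded CPEB3 ribozyme libraries from rounds of error-prone PCR were transcribed with T7 RNA polymerase for 5 hours at 37°C and then given 15 min of DNase I treatment before EDTA was added. The RNAs were reverse transcribed with template switching and sequenced on Illumina, and DNA sequencing linked barcodes to variants. A minimum of 5 reads applied, and three batches were averaged.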
Consider A21C A45U A56G, for which the self-cleavage came to 0.21. The same measure for A21G A65G U72A: 0.11; for A21G A65G U72G: 0.14; for A20U U48A A56C C62U U69C: 0.09.

For the variant A20U U41A U54C, the self-cleavage was 0.13.

As to A21G A57G U69C U80C, the self-cleavage came out at 0.17.

In the case of A21G C29U A47G U51C G61U A64G, the self-cleavage came out at 0.06. Regarding A21G A56G U67C, the self-cleavage was 0.26. Turning to A21G C40G G46A, the self-cleavage stood at 0.16. Turning to A21G G33A U41C A45U U80A, the self-cleavage came out at 0.2. For A21C A56G U67C, the self-cleavage turned out to be 0.07. On to A20U U48C U49A U51A U72G, for which the self-cleavage was determined as 0.47. As for A21G A35G U66C G70A, the self-cleavage was determined as 1.08. A21G C32G G33U A35C A57G U80C: the self-cleavage was found to be 0.09. In the case of A20U U26C A28U U67C A77G it was 0.06; in that of A21G C68A U74C, 0.21. The same measure for A20U U51C U80C: 0.55; for A21G A35G A57G U67A A75G: 0.62. A21G A57G C62G U80A: the self-cleavage is 0.1. With A20U U43C U51A U72C A77G, the self-cleavage turned out to be 0.26. With A20U U43C A57C, the self-cleavage was determined as 0.06. Consider A21G G30U A35U U43C C62A A64U, for which the self-cleavage stood at 0.08.

Regarding A21G G22U C32U U43C U58C, the self-cleavage came out at 0.05. In the case of A20U U31C A47G U48C, the self-cleavage stood at 0.1. In the case of A21G A45U A57G U69A G73A it was 0.28; in that of A21G C29U C62U, 0.05. Turning to A20U U43C U67A, the self-cleavage turned out to be 0.95. On to A20U U54C A56U U67C, for which the self-cleavage worked out at 0.09.

As to A20U U51A A57G, the self-cleavage is 0.19. A21G A56G U58C U76A: the self-cleavage worked out at 0.29. For the variant A21G C29U U41A C71U, the self-cleavage was determined as 0.15. Regarding A20U U26C G53A C62U, the self-cleavage was determined as 0.1. Consider A21G C40U A77G, for which the self-cleavage is 0.19. As to A21G A28G U49G A65G U67C C71U U74A, the self-cleavage turned out to be 0.02.

With A21G A35G U58C, the self-cleavage stood at 0.97. With A21C U25C U69C, the self-cleavage worked out at 0.37. In the case of A21G G22A U26A A47G U58C it was 0.12; in that of A21G C39G U51C, 0.31; in that of A21G A45C G53U, 0.17.

As for A21G A45U U48C U51C U60G A75G U78C, the self-cleavage worked out at 0.06. On to A21C U72A C81G, for which the self-cleavage worked out at 0.12. The same measure for A21C U43C U48A A77U: 0.16; for A20U U58G U60A A64G C71A: 0.03. In the case of A20U U60C U67C it was 0.05. A21G A35U C59A U78A: the self-cleavage amounted to 0.06. For A20U U31A C50A, the self-cleavage came out at 0.18. Consider A21G C29A U43C U49C, for which the self-cleavage is 0.24. As for A20U U43A U49C A65G, the self-cleavage turned out to be 0.06. For A21G A28G A45G A77U, the self-cleavage worked out at 0.28. A21G C40A U41A A47U: the self-cleavage came to 0.17. In the case of A20U U31C A35U U41A, the self-cleavage turned out to be 0.15. Turning to A21G A35U U41C A64G U69A, the self-cleavage was 0.13. In the case of A21G A35G C40A, the self-cleavage came out at 0.34. For A21G G24A A28G A45G, the self-cleavage worked out at 0.14. The same measure for A20U U43A U74C A75U: 0.53. For A20U U43A U49A, the self-cleavage worked out at 0.21. For A21G A28G U67C U72G, the self-cleavage is 0.08. The same measure for A21G A45U U69C: 0.28; for A20U U26A U48C U51A: 0.22. The same measure for A21G C32A U41C U60A: 0.15; for A21G A47G A56G: 0.2; for A20U U31C C32U U60C: 0.05. Turning to A21G C37G C40U U78C U80C, the self-cleavage is 0.08. Regarding A21G C50U U51A, the self-cleavage was 0.65.

For the variant A20U U69A U72C U78C, the self-cleavage amounted to 0.42. With A21G A35G U41C U67C, the self-cleavage was 0.17.

With A21G A45U U54A U60C, the self-cleavage came out at 0.25. On to A20U U31A C32U C39G, for which the self-cleavage is 0.34. With A21C U48C U66C, the self-cleavage was 0.11. Take A21G C23A A35G U41G: the self-cleavage was 0.28. Turning to A21G A35G U69A A77U, the self-cleavage came out at 1.01. With A21C A35U U48C, the self-cleavage turned out to be 0.05. For the variant A21G A56U U66C, the self-cleavage was determined as 0.67. For the variant A21G G42A A47G A64G A75G, the self-cleavage was 0.04. Regarding A21G A35G A45G U74C U80A, the self-cleavage is 1.23. The same measure for A21G A47G U48C C50G A57G: 0.14. For A21G A65U G73U, the self-cleavage was 0.22. For A21G C40A U54C A77U, the self-cleavage was 0.06. The same measure for A20U U43C U60C: 0.11; for A21G G30A A56U U78C: 0.19. As to A20U U31C U72A, the self-cleavage was 0.14.

For A21G A28U G30U U49C U54G U58A U66C, the self-cleavage amounted to 0.04. As to A21C U26C G33U A47U, the self-cleavage worked out at 0.05.

In the case of A21G G30U U41C, the self-cleavage was found to be 0.22. Turning to A21G A28G U31A A47G U60C U69C A77C, the self-cleavage is 0. For the variant A21G C32G U49C A57G A65U U80C, the self-cleavage worked out at 0.03. Take A20U U43C G63U: the self-cleavage was determined as 0.33. The same measure for A21G A28G A35G U41A A65G A75U: 0.28. In the case of A20U U41C U49C U66C U69C it was 0.21; in that of A21G C32U U67C, 0.15; in that of A20U U54C C71U U72C, 0.14. Consider A21G C32U A45G U48C U72A, for which the self-cleavage is 0.05. For the variant A21G A45U A56G A75U, the self-cleavage turned out to be 0.18. Take A21G C27U A28G U41C G52A U54C U69A: the self-cleavage was 0.1. The same measure for A21G C34U U66C: 0.16; for A21G A65G A75U: 0.22; for A21G A65G A75C: 0.24. On to A20U U69C U78C, for which the self-cleavage was 0.12. For A21G C32A G46U U51C G63U, the self-cleavage worked out at 0.1. In the case of A20U U26C A35G U43G A45G C62U it was 0.06; in that of A21G G30U U51C U78C, 0.06. Take A20U U48C A57G U58A U67C: the self-cleavage amounted to 0.14.

As for A21G C34A U54G A57G U66C, the self-cleavage worked out at 0.03. The same measure for A20U U49C A56G A64U: 0.3; for A21G A45C U72A: 0.1; for A20U U51A U76C U80C: 0.26. Regarding A20U U41C G63U, the self-cleavage turned out to be 0.28. As to A21G A28G U41C A45G U49C U72C, the self-cleavage amounted to 0.2.

As to A21G A35G U43A U48C U74G, the self-cleavage came out at 0.67. For the variant A21G C23U U26C C40U A65G A77G, the self-cleavage turned out to be 0.07. With A21G A35G U43C A47G A56G U66C A77U, the self-cleavage is 0.9. In the case of A20U U54C U58A A65G U76A, the self-cleavage was 0.03. Regarding A21G A35G U54C, the self-cleavage is 1.34. Turning to A20U U58C A65G, the self-cleavage stood at 0.08. For the variant A21G A28U U41C A64G U78C U80C, the self-cleavage is 0.08.

As to A21G C34U A35G U41C, the self-cleavage is 0.2. Regarding A21G A28U U67C U78C, the self-cleavage worked out at 0.2.

In the case of A21G C32A U51C A57G, the self-cleavage worked out at 0.19. In the case of A21C U49C U72C it was 0.12. With A21G A45U C68U, the self-cleavage was determined as 0.31. On to A21G A35U U49C U51C A64U, for which the self-cleavage worked out at 0.12. A20U U26G G63A C68A U78C: the self-cleavage was determined as 0.02. On to A21G C38A A47G, for which the self-cleavage was 0.19.

With A21G C39U A57G, the self-cleavage was determined as 0.14. A21G A35U U76C A77G: the self-cleavage amounted to 0.22.

As to A21G A47G U49C, the self-cleavage worked out at 0.38. In the case of A21G A47G U49A it was 0.08; in that of A21G C29U U60C U72C U78C, 0.12. In the case of A21G A35G A65G, the self-cleavage came to 0.6. In the case of A21G C38U U78C, the self-cleavage turned out to be 0.5. A21G C38U U78A: the self-cleavage is 0.25. Regarding A21G G24A U51A C59A A64G U72C, the self-cleavage came out at 0.09. The same measure for A21G A35G U43C: 0.89. For A20U U26C A65G, the self-cleavage is 0.34. The same measure for A20U U26C C29G A65G: 0.1; for A21G G24A G36C U74C: 0; for A21G A57G A64G U74C U78C: 0.42. A21G A28G U58A A75G: the self-cleavage came out at 0.13.

On to A21G C37U U41C C59U, for which the self-cleavage came to 0.34. For A21G G36A U41C U49A, the self-cleavage was 0.06.

Consider A21G C23G U25C A28U, for which the self-cleavage worked out at 0.44. For the variant A21G A28G G30A, the self-cleavage stood at 0.43.

A21G C27U A35U U51C U54A U67C: the self-cleavage is 0.06. The same measure for A20U U41C G52C: 0.3; for A20U U41A A57G: 0.44; for A21G C39U A45U A57G U60A: 0.11.

As to A20U U54A U60A G63U, the self-cleavage stood at 0.25. Turning to A21G A28G U43C U69G U76A, the self-cleavage is 0.18.

As for A21G A28U C68A U80C, the self-cleavage is 0.17. For the variant A21G G24A U43A U51C U60C U74A U78C, the self-cleavage was 0.05.

Take A21G A28G C62U: the self-cleavage was determined as 0.08. A20U U60A A77U: the self-cleavage stood at 0.15. The same measure for A20U U41C A45C U72C: 0.08.

For A21G A35G U41A C81U, the self-cleavage stood at 0.16.

For A21G G24A U26C U48C, the self-cleavage amounted to 0.17. With A21G A35U A45G A56C, the self-cleavage is 0.05. With A20U U74A U80C, the self-cleavage worked out at 0.59.

As for A21G G24A U31C U51A, the self-cleavage stood at 0.15. In the case of A21G C29G A56G, the self-cleavage stood at 0.11. The same measure for A21G A28G U54G U60A: 0.18; for A20U U49C U67C: 0.14. With A21G A75U U80A, the self-cleavage came out at 0.78.

Take A21G C34A G70A U80C: the self-cleavage turned out to be 0.14.

For the variant A21G A57G U74C, the self-cleavage was 1.07. Consider A21G A35G U43C G52U, for which the self-cleavage came out at 1.03. Turning to A21G C39A A47G U54C U66C A77U, the self-cleavage was determined as 0.07. The same measure for A21G A35G U41C U67C A77G: 0.16.
